{
  "source": "PubChem BioAssay AID1508623",
  "about": "(National Center for Advancing Translational Sciences (NCATS), 2021)",
  "note": "Out of some 48,000 compounds screened, about 450 (0.94%) were called active. This list was built around the results that the source calls inconclusive (neither active nor inactive); the mix of calls is not that of the screen. The call rests on the fitted dose curve; in most records, active means well fitted inhibition curve with a large enough effect; inconclusive means small, poorly fitted or top-dose-only effect; inactive means no such curve, though single readings can be large or run the other way. Potencies of inconclusive entries are doubtful fits and often do not repeat. Potency means the concentration at half of the fitted maximal effect; tags describe the fitted curve by direction and shape.",
  "data": [
    {"assay": "Primary qHTS for Identification of Small Molecule Inhibitors of Huntingtin Promoter Activity; further: nearly all actives have a fitted effect of over 50% in size", "details": "HEK293 HTT promoter firefly luciferase reporter (activity 0% = vehicle and -100% = no light), 24 h; series mostly up to 57.5 µM", "outline": "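HEK293 Fluc reporter, 2,500 cells/well, 24 h pre-culture; cpds up to 57.5 uM final, 24 h 37 degrees C; Dual-Glo, 10 min RT; normalized vehicle = 0%, zero RLU = -100%.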", "values": [
      {"smiles": "CCC1CN(S(=O)(=O)c2cc(-c3cc(C)no3)ccc2OC)c2cc(C)ccc2O1", "note": "(stereo not drawn)", "Potency": "inconclusive: 8.91 µM [inhibitor, full curve, poor fit]"},
      {"smiles": "Cc1ccc(S(=O)(=O)N2CCC(c3nnc(-c4cccc(C)c4)o3)CC2)cc1", "Potency": "inconclusive: 31.6 µM [inhibitor, partial curve, poor fit]"},
      {"smiles": "Cc1ccc(S(=O)(=O)c2nc(-c3ccco3)oc2SCC(=O)c2ccc(Cl)cc2)cc1", "Potency": "inconclusive: 28.2 µM [inhibitor, single point]"},
      {"smiles": "CCOC(=O)c1c(NC(=O)c2ccccc2C)sc2c1CCCC2", "Potency": "inactive"},
      {"smiles": "O=c1[nH]c2ccc(NS(=O)(=O)c3ccc(F)cc3)cc2s1", "Potency": "inconclusive: 28.2 µM [inhibitor, partial curve, poor fit]"},
      {"smiles": "Brc1ccc(-c2nc(N3CCN(c4ccccc4)CC3)c3ccccc3n2)cc1", "Potency": "inconclusive: 31.6 µM [inhibitor, partial curve, poor fit]"},
      {"smiles": "Cc1cccc(Cn2c(SCc3ccc(C(=O)NCc4cccs4)cc3)nc3cccnc32)c1", "Potency": "inconclusive: 35.5 µM [inhibitor, single point]"},
      {"smiles": "CC(C)c1ccc(NC(=O)c2cc(S(=O)(=O)NC3CCCCC3)ccc2F)cc1", "Potency": "inconclusive: 35.5 µM [inhibitor, partial curve]"},
      {"smiles": "COc1ccc(Cl)cc1NC(=O)COC(=O)CC(C)(C)CC1=NS(=O)(=O)c2ccccc2N1", "Potency": "inconclusive: 28.2 µM [inhibitor, single point]"},
      {"smiles": "COCCCN1C(=O)c2[nH]nc(-c3ccccc3O)c2C1c1ccc(OC)cc1", "note": "(stereo not drawn)", "Potency": "inconclusive: 31.6 µM [inhibitor, partial curve, poor fit]"},
      {"smiles": "O=c1ccc2ccc(O)c(O)c2o1", "Potency": "inconclusive: 6.85 µM [inhibitor, partial curve]"},
      {"smiles": "Cc1cccc(N2CCN(C(=O)C3CCCN(C(=O)c4cc5sccc5n4C)C3)CC2)c1C", "note": "(stereo not drawn)", "Potency": "inconclusive: 39.8 µM [inhibitor, single point]"},
      {"smiles": "COc1ccc(N2CCN(c3ncnc4onc(C)c34)CC2)cc1", "Potency": "inconclusive: 15.8 µM [inhibitor, partial curve, poor fit]"},
      {"smiles": "CCOc1ccc(CCNC(=O)Cn2ccc3cc(S(=O)(=O)N4CCCCCC4)ccc32)cc1", "Potency": "inconclusive: 14.1 µM [inhibitor, partial curve, poor fit]"},
      {"smiles": "COc1ccc(NC(=O)C(=O)c2cc(C)n(-c3ccc(C)cc3)c2C)cc1Cl", "Potency": "inconclusive: 22.4 µM [inhibitor, partial curve, poor fit]"},
      {"smiles": "CCCOC(=O)c1cccc(Nc2nc(C(=O)OCC)nc3ccccc23)c1", "Potency": "inconclusive: 12.6 µM [inhibitor, partial curve, poor fit]"},
      {"smiles": "COc1ccc(CNC(=O)C2CCN(c3nnc(C)c4c(C)n(-c5ccc(C)cc5)nc34)CC2)cc1", "Potency": "inconclusive: 28.2 µM [inhibitor, single point]"},
      {"smiles": "COc1cccc(CNC(=O)Nc2ccc3c(c2)N(C)C(=O)c2ccccc2S3)c1", "Potency": "inconclusive: 28.2 µM [inhibitor, single point]"},
      {"smiles": "O=C(Nc1nnc2n1CCS2)c1cc(C(F)(F)F)cc(C(F)(F)F)c1", "Potency": "inactive"},
      {"smiles": "CCOc1ccc(N(C)S(=O)(=O)c2cc(-c3cnc(C)o3)ccc2OC)cc1", "Potency": "inconclusive: 39.8 µM [inhibitor, partial curve, poor fit]"},
      {"smiles": "Cc1ccc(NC(=O)C2CCCN(c3nc4ccccc4s3)C2)c(C)c1", "note": "(stereo not drawn)", "Potency": "inactive"},
      {"smiles": "CCOc1ccc(CNC(=O)c2ccc(Sc3ccc(C)cc3)c(N)c2)cc1OC", "Potency": "inconclusive: 28.2 µM [inhibitor, partial curve, poor fit]"},
      {"smiles": "COC(=O)CSc1nnc(-c2cccc(O)c2)o1", "Potency": "inactive"},
      {"smiles": "COc1ccc(C(C)=O)cc1CSc1nc(NCc2ccc(Cl)cc2)c2ccccc2n1", "Potency": "inconclusive: 31.6 µM [inhibitor, single point]"},
      {"smiles": "CC(=O)Nc1sc2c(c1-c1nc3ccccc3s1)CNC2", "Potency": "inconclusive: 0.243 µM [inhibitor, full curve, poor fit]"},
      {"smiles": "CCN1C(=O)c2ccccc2S(=O)c2ccc(C(=O)N3CCN(c4cccc(Cl)c4)CC3)cc21", "note": "(stereo not drawn)", "Potency": "inconclusive: 35.5 µM [inhibitor, single point]"},
      {"smiles": "O=C(Cc1ccc(F)cc1)NCCc1csc2nc(-c3ccc(Cl)cc3)nn12", "Potency": "inconclusive: 31.6 µM [inhibitor, partial curve, poor fit]"},
      {"smiles": "Cc1cccc(NC(=O)c2cc3c(C)nn(-c4ccccc4)c3s2)c1", "Potency": "inconclusive: 25.1 µM [inhibitor, partial curve]"},
      {"smiles": "COc1ccc(NC(=O)c2ccc(-c3nc(CSc4ccccc4)c(C)o3)cc2)c(OC)c1", "Potency": "inconclusive: 35.5 µM [inhibitor, partial curve, poor fit]"},
      {"smiles": "CCCCN(c1ccccc1)S(=O)(=O)c1cc2c3c(c1)C(C)C(=O)N3CCC2", "note": "(stereo not drawn)", "Potency": "inconclusive: 35.5 µM [inhibitor, single point]"},
      {"smiles": "Fc1ccc(-n2ncc3c(NCCCc4ccccc4)ncnc32)cc1", "Potency": "inactive"},
      {"smiles": "CCCCN(CC)C(=O)Cn1cc2c(n1)-c1c(oc(C(=O)N3CCCC3)c1C)CC2", "Potency": "inconclusive: 25.1 µM [inhibitor, partial curve, poor fit]"},
      {"smiles": "O=C(NCCCc1ccccc1)c1ccc2c(c1)sc1nc(-c3ccc(F)cc3)cn12", "Potency": "inconclusive: 11.2 µM [inhibitor, partial curve, poor fit]"},
      {"smiles": "CN1CCCC(CC2c3ccccc3Sc3ccccc32)C1", "note": "(stereo not drawn)", "Potency": "inconclusive: 25.1 µM [inhibitor, partial curve, poor fit]"},
      {"smiles": "COc1ccccc1NC(=O)C1=C(C)Nc2nc(SCc3ccccc3)nn2C1c1cccs1", "note": "(stereo not drawn)", "Potency": "inconclusive: 35.5 µM [inhibitor, single point]"},
      {"smiles": "O=C(NCCc1ccc(Cl)cc1)c1ccc2c(c1)N(Cc1ccccc1)C(=O)CS2", "Potency": "inconclusive: 39.8 µM [inhibitor, single point]"},
      {"smiles": "CC(Oc1ccccc1F)C(=O)N1CCC(c2nc3ccccc3o2)CC1", "note": "(stereo not drawn)", "Potency": "inconclusive: 35.5 µM [inhibitor, single point]"},
      {"smiles": "Cc1ccc(Cn2c(Cc3ccccc3)nc3ccccc32)cc1", "Potency": "inconclusive: 31.6 µM [inhibitor, partial curve]"},
      {"smiles": "Cc1ccc(CSc2nc3cccnc3n2Cc2nc(-c3ccccc3F)oc2C)cc1", "Potency": "inconclusive: 17.8 µM [inhibitor, partial curve, poor fit]"},
      {"smiles": "O=C(C1CC1)N1CCc2cc(Br)cc(S(=O)(=O)Nc3ccc(C(F)(F)F)cc3)c21", "Potency": "inconclusive: 39.8 µM [inhibitor, single point]"},
      {"smiles": "CCOc1ccc(-n2nc3ccc(NC(=O)COc4ccccc4C)cc3n2)cc1", "Potency": "inconclusive: 1 µM [inhibitor, full curve, poor fit]"},
      {"smiles": "COc1ccc(S(=O)(=O)N(CCc2ccccc2)CC(=O)NCc2ccc(C)cc2)cc1", "Potency": "inconclusive: 25.1 µM [inhibitor, partial curve]"},
      {"smiles": "CN1CCN(c2cc(C(=O)Nc3ccc4c(c3)-c3c(c(C(N)=O)nn3-c3ccc(F)cc3)CC4)c(Cl)cn2)CC1", "Potency": "inconclusive: 3.43 µM [inhibitor, full curve]"},
      {"smiles": "CCC1CCCCN1C(=O)CSc1nc(-c2ccc(OC)cc2)cc(C(F)(F)F)n1", "note": "(stereo not drawn)", "Potency": "inconclusive: 31.6 µM [inhibitor, partial curve, poor fit]"},
      {"smiles": "CCOc1ccc(C(=O)NCCc2sc(-c3ccc(F)cc3)nc2C)cc1", "Potency": "inconclusive: 39.8 µM [inhibitor, single point]"},
      {"smiles": "COc1ccc(Nc2ncc(C(=O)N3CCN(c4ccccc4OC)CC3)c3ccccc23)cc1", "Potency": "inconclusive: 39.8 µM [inhibitor, single point]"},
      {"smiles": "CO[C@@]1(NC(=O)CSCC#N)C(=O)N2C(C(=O)O)=C(CSc3nnnn3C)CS[C@@H]21", "Potency": "inactive"},
      {"smiles": "COc1ccc(NC(=O)CSc2ncc3c(n2)-c2ccccc2N(C)S3(=O)=O)cc1Cl", "Potency": "inconclusive: 39.8 µM [inhibitor, partial curve, poor fit]"},
      {"smiles": "Cc1ccc(CSc2cn(CCNC(=O)c3cccs3)c3ccccc23)cc1", "Potency": "inconclusive: 28.2 µM [inhibitor, single point]"},
      {"smiles": "O=C(Nc1ccc(F)c(Cl)c1)C1CCN(S(=O)(=O)c2ccc3c(c2)CCCN3C(=O)C2CCC2)CC1", "Potency": "inconclusive: 11.2 µM [inhibitor, partial curve, poor fit]"},
      {"smiles": "O=C(Cn1c(SCC(=O)Nc2ccc(F)cc2)nc2ccccc21)NCc1ccc(Cl)cc1", "Potency": "inconclusive: 39.8 µM [inhibitor, single point]"},
      {"smiles": "O=C(Nc1nnc(S(=O)(=O)N2CCCCCC2)s1)c1ccccc1", "Potency": "inactive"},
      {"smiles": "COc1ccc(OC)c(NC(=O)c2c(NCc3ccc(N(C)C)cc3)sc3c2CCCC3)c1", "Potency": "inconclusive: 39.8 µM [inhibitor, single point]"},
      {"smiles": "O=C(NCCCc1ccccc1)c1nn(-c2ccccc2)nc1CO", "Potency": "inconclusive: 15.8 µM [inhibitor, single point]"},
      {"smiles": "CCn1cc2nc(SCc3cccc(C)c3)n(CCc3ccccc3)c(=O)c2n1", "Potency": "inactive"},
      {"smiles": "CCOC(=O)c1ccc(NC(=O)CCC(=O)N2CCSc3ccccc32)cc1", "Potency": "inconclusive: 39.8 µM [inhibitor, single point]"},
      {"smiles": "CCc1ccc2oc(-c3ccc(C)c(NC(=O)c4ccc(C#N)cc4F)c3)nc2c1", "Potency": "inconclusive: 20 µM [inhibitor, partial curve, poor fit]"},
      {"smiles": "Cc1ccc(NC(=O)c2ccc(CNS(=O)(=O)c3ccc4c(c3)C(C)(C)C(=O)N4C)cc2)cc1", "Potency": "inconclusive: 35.5 µM [inhibitor, single point]"}
    ]}
  ]
}
